From PubChem BioAssay AID1745853 (National Center for Advancing Translational Sciences (NCATS), 2022) come the findings set out here.

Some of the results follow. These are further read-outs of the screen, such as a control signal, another cell line or another target. No call is given for them.

What all share (assay): Primary Screen for Target Class Profiling of Small Molecule Inhibitors of Methyltransferases
In assay [1] the target is Glycine N-methyltransferase (Homo sapiens) (UniProt Q14749). Particulars: purified enzyme, MTase-Glo SAH luminescence; measured here: GNMT inhibition; at 40 µM; stronger effect = lower value. Summed up: (§1)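 Each enzyme was assayed with SAM and its substrate. SAH formation detected by MTase-Glo luminescence; single-point 40 uM screen[…].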
The target of assay [2] is Guanidinoacetate N-methyltransferase (Homo sapiens) (UniProt Q14353). Particulars: purified enzyme, MTase-Glo SAH luminescence; measured here: GAMT inhibition; at 40 µM; stronger effect = lower value. The essentials: as §1
The target in assay [3] is Histamine N-methyltransferase (Homo sapiens) (UniProt P50135). Particulars: purified enzyme, MTase-Glo SAH luminescence; measured here: HNMT inhibition; at 40 µM; stronger effect = lower value. Summed up:
as §1

Assay [4] deals with Nicotinamide N-methyltransferase (Homo sapiens) (UniProt P40261). As to conditions: purified enzyme, MTase-Glo SAH luminescence; measured here: NNMT inhibition; at 40 µM; stronger effect = lower value. The essentials: as §1
In assay [5] the target is Phenylethanolamine N-methyltransferase (Homo sapiens) (UniProt P11086). As to conditions: purified enzyme, MTase-Glo SAH luminescence; measured here: PNMT inhibition; at 40 µM; stronger effect = lower value. Summed up: as §1
On the % scale 0 is the no-effect control and ±100 the full control effect.

Turning to `Cc1cncc(C(=O)N2CC(CO)C3(CCNCC3)C2)c1` (stereo unspecified), the activity change, negative = inhibition in assay [1] was -2.99%; in assay [2] it was -2.84%; in assay [3] it was -0.65%; in assay [4], -3.4%; in assay [5] it was -0.114%.
Take `O=C(c1ccncc1)N1CCC2(CC1)CN(c1ncccn1)CC2CO` (stereo unspecified): the activity change, negative = inhibition in assay [1] was -0.78%; in assay [2] it was -1.99%; in assay [3] it was -0.308%; in assay [4], -4.07%; in assay [5], 7.14%.
For `CC(C)Cn1c(=O)c2cc(F)ccc2n2c(SCc3cccc(Cl)c3)nnc12`, in that order: -12.7%, 0%, 2.31%, -11.5% and 3.85%.
For `O=C(CCc1nnc2n(Cc3ccc(F)cc3)c(=O)c3ccccc3n12)NCCc1c[nH]c2ccccc12`, in that order: -6.41%, 2.06%, -2.98%, -4.46% and -5.57%.
As to `COc1ccc(CN2C(=O)c3cc4ccccc4n3CC2(C)C(=O)NCCC(C)C)cc1` (stereo unspecified), the activity change, negative = inhibition in assay [1] was -6.85%; in assay [2] it was 4.66%; in assay [3], 1.17%; in assay [4] it was -0.239%; in assay [5] it was -1.5%.
As to `CCC(C)N1C(=O)c2ccc(-c3ccco3)n2CC1(C)C(=O)NC1CCCCCCC1` (stereo unspecified), the activity change, negative = inhibition in assay [1] is -10.1%; in assay [2], 2.02%; in assay [3], -5.99%; in assay [4], -28.7%; in assay [5], -2.37%.
`O=c1ccn([C@@H]2O[C@H](CO)[C@@H](O)[C@H]2O)c(=O)[nH]1`: the activity change, negative = inhibition in assay [1] is 1.85%; in assay [2], 0.96%; in assay [3], 8.98%; in assay [4] it was -6.03%; in assay [5], 4.21%.
`O=C(CCCc1cccs1)N1CCCC(O)(CN2CCCC2)C1` (stereo unspecified): the activity change, negative = inhibition is -0.35% in assay [1]; -3.41% in assay [2]; -0.296% in assay [3]; 2.11% in assay [4]; 1.88% in assay [5].
In the case of `CC(C)(C)n1nc(Cc2cccc([N+](=O)[O-])c2)c2c(N)ncnc21`, the activity change, negative = inhibition in assay [2] is -6.44%; in assay [4] it was -46.8%; in assay [5] it was -14.1%.
In the case of `OC[C@@H]1CNC[C@H]1C1CCN(Cc2ccncc2F)CC1`, the activity change, negative = inhibition in assay [1] is -2.49%; in assay [2], -3.45%; in assay [3], -0.65%; in assay [4] it was -4.3%; in assay [5], -18%.
For `C=C1C(=O)OC2/C=C(\C)CC/C=C(\C=O)C(OC)C(OC(=O)C(C)CC)C12` (stereo unspecified), in that order: 4.1%, 1.37%, 6.18%, -8.68% and 0.79%.
For `CCOC(=O)c1cc2n(n1)CC(C)(C(=O)NC1CCC(C)CC1)N(Cc1ccc(C)cc1)C2=O` (stereo unspecified), in that order: 3.24%, 1.57%, 5.17%, 0.198% and 3.49%.
As to `CCc1noc([C@@H]2CC(F)(F)CN2C(=O)c2ccncc2F)n1`, the activity change, negative = inhibition in assay [1] was -0.662%; in assay [2], 0.526%; in assay [3], 2.38%; in assay [4] it was -2.03%; in assay [5], -0.854%.
Regarding `CC[C@H](NC(=O)c1c(O)c(-c2ccccc2)nc2ccccc12)c1ccccc1`, the activity change, negative = inhibition in assay [1] is 2.14%; in assay [2], -1.4%; in assay [3] it was 1.73%; in assay [4], -18.1%; in assay [5] it was -9.06%.
Consider `Cc1ccc(-c2cc(-c3cccnc3)nc3c(C)noc23)c(C)c1`, for which the activity change, negative = inhibition in assay [1] is -8.36%; in assay [2], -6.78%; in assay [3] it was -7.05%; in assay [4], -21.1%; in assay [5], -7.87%.
As to `COc1ccc(-c2nnc3n(Cc4ccccc4)c(=O)c4ccccc4n23)c(O)c1`, the activity change, negative = inhibition in assay [1] is -10.9%; in assay [2], 4.28%; in assay [3], -0.246%; in assay [4], 1.79%; in assay [5] it was -2.24%.
On to `CCCn1c(=O)c2cc(F)ccc2n2c(SCc3ccc(Cl)cc3)nnc12`, for which the activity change, negative = inhibition in assay [1] is -13.6%; in assay [2], 2.78%; in assay [3], 1.67%; in assay [4], -14.2%; in assay [5] it was -3.52%.
Turning to `COc1cc(OC)cc(N2C(=O)c3cc(C(C)(C)C)nn3CC2(C)C(=O)NCc2ccccc2)c1` (stereo unspecified), the activity change, negative = inhibition in assay [1] was 4.18%; in assay [2], 1.39%; in assay [3] it was 1.08%; in assay [4], 3.98%; in assay [5], -0.788%.
Turning to `Cc1cnc(Nc2ccc(F)cc2Cl)nc1-c1c[nH]c(C(=O)NC(CO)c2cccc(Cl)c2)c1` (stereo unspecified), the activity change, negative = inhibition is -5.28% in assay [1]; 2.26% in assay [2]; 7.49% in assay [3]; -24% in assay [4]; -19.4% in assay [5].
On to `CC(=O)NCCC(=O)N1CCCCC1C(=O)Nc1ccc(-n2nc(C)cc2C)cc1` (stereo unspecified), for which the activity change, negative = inhibition in assay [1] is -3.38%; in assay [2], -11.2%; in assay [3] it was -5.33%; in assay [4], -10.9%; in assay [5] it was -11.1%.
Consider `C[C@@H](Oc1cc(-n2cnc3ccc(OC4CCN(C)CC4)cc32)sc1C(N)=O)c1ccccc1Cl`, for which the activity change, negative = inhibition in assay [2] is -96.6%; in assay [4], -98.4%; in assay [5], -97.7%.
For the molecule `COCCn1nnc2cc(S(=O)(=O)N(C)CC(=O)N3CCOCC3)ccc21`, the activity change, negative = inhibition in assay [1] was -0.425%; in assay [2], 0.202%; in assay [3], 8.89%; in assay [4] it was 8.95%; in assay [5] it was 7.93%.
In the case of `CC(C)=CCC(O)/C(C)=C/CO[C@@H]1O[C@H](CO)[C@@H](O)[C@H](O)[C@H]1O` (stereo partly specified), the activity change, negative = inhibition is -3.08% in assay [1]; -5.21% in assay [2]; 1.85% in assay [3]; -14.9% in assay [4]; -13% in assay [5].
Take `CC(C)(C)c1ccc(C(=O)CCCN2CCC(OC(c3ccccc3)c3ccccc3)CC2)cc1`: the activity change, negative = inhibition in assay [1] is -0.871%; in assay [2] it was 7.65%; in assay [3] it was -16.7%; in assay [4], -13.2%; in assay [5] it was -0.466%.
Consider `Cc1cc2[nH]c(=O)[nH]c2cc1S(=O)(=O)Nc1ccc(F)cc1`, for which the activity change, negative = inhibition in assay [1] is 9.49%; in assay [2] it was 0%; in assay [3], 14.9%; in assay [4], 2.18%; in assay [5], 1.97%.
As for `Cc1nonc1Cc1nc(C2CCOCC2)nn1CC1COCCO1` (stereo unspecified), the activity change, negative = inhibition is -2.85% in assay [1]; 1.48% in assay [2]; 0.424% in assay [3]; 1.92% in assay [4]; -0.206% in assay [5].
For `COc1ccc(/C=C/C(=O)O[C@H]2[C@@H]3C=CO[C@@H](O[C@@H]4O[C@H](CO)[C@@H](O)[C@H](O)[C@H]4O)[C@@H]3[C@@]3(CO)O[C@@H]23)cc1O`, in that order: -5.42%, 4.75%, 2.71%, -8.18% and 2.72%.
As for `CCc1ccccc1NC(=O)CSc1nnc2n(Cc3ccc(C)cc3)c(=O)c3ccccc3n12`, the activity change, negative = inhibition in assay [1] was -6.06%; in assay [2], -0.072%; in assay [3], -1.57%; in assay [4] it was -7.63%; in assay [5], -5.37%.
In the case of `CCCn1c(=O)c2cc(Cl)ccc2n2c(=O)n(CC(=O)Nc3ccc4c(c3)OCCO4)nc12`, the activity change, negative = inhibition is -0.765% in assay [1]; 1.92% in assay [2]; 5.2% in assay [3]; 0.22% in assay [4]; -0.473% in assay [5].
As for `O=C(NO)c1cnc(N2CCN(S(=O)(=O)c3ccc4ccccc4c3)CC2)nc1`, the activity change, negative = inhibition in assay [1] was -1.34%; in assay [2] it was 1.03%; in assay [3], 1.27%; in assay [4] it was -13.7%; in assay [5] it was -2.09%.
Turning to `Cc1ccc(CN2C(=O)c3cc(-c4ccccc4)nn3CC2(C)C(=O)NCc2ccccc2)cc1` (stereo unspecified), the activity change, negative = inhibition came out at 3.97% in assay [1]; 4.24% in assay [2]; 7.01% in assay [3]; 4% in assay [4]; 2.77% in assay [5].
